# Test results: the supplement of paper PMC12217912
# The other results are listed elsewhere or left out. The full chains were built here from the parent and the listed change. Values near 0.05 are background.
# B1: TEV protease; numbered along this chain (parent)
# chain: MGESLFKGPRDYNPISSSICHLTNESDGHTTSLYGIGFGPFIITNKHLFRRNNGTLVVQSLHGVFKVKDTTTLQQHLVDGRDMIIIRMPKDFPPFPQKLKFREPQREERICLVTTNFQTKSMSSMVSDTSCTFPSGDGIFWKHWIQTKDGQCGSPLVSTRDGFIVGIHSASNFTNTNNYFTSVPKNFMELLTNQEAQQWVSGWRLNADSVLWGGHKVFMVKPEEPFQPVKEATQL
# Variants of: B1
# Experiment: raw area under fraction-flipped curve 0-4 h after induction (AUC4h, not background-subtracted), DNA-recorder readout of cleavage of the substrate (dimensionless); higher = more cleavage of the substrate by the protease variant
# Conditions: temperature: 34 °C; time window: 0-4 h after rhamnose induction
# Method: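 In vivo DNA recorder in E. coli TOP10(DE3) ΔrhaA at 34 °C. Each TEVp single-site mutant (parent TEVp 0) is paired with a single-site variant of the 7-mer TEVs (canonical ENLYFQ|S). The substrate sits between flexible linkers in a Bxb1-sfGFP-TEVs-SsrA fusion, so cleavage stabilises Bxb1 and speeds flipping of a recombination array, read by NGS. The value is the raw area under the fraction-flipped curve over 0-4 h after rhamnose induction (AUC4h), with ≥20 reads per time point. It is not background-subtracted; inactive controls average about 0.047.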
# 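Note: Bxb1 expression induced with 0.2% (w/v) L-rhamnose at OD600 near 0.5, cultures sampled hourly, flipped fraction per protease–substrate barcode pair counted by paired-end Illumina sequencing.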
Variant,area with substrate EALYFQS,area with substrate EELYFQS,area with substrate EILYFQS,area with substrate EMLYFQS,area with substrate EPLYFQS,area with substrate EQLYFQS,area with substrate ERLYFQS,area with substrate ESLYFQS,area with substrate ECLYFQS,area with substrate EGLYFQS,area with substrate ETLYFQS,area with substrate EVLYFQS,area with substrate EKLYFQS,area with substrate ELLYFQS,area with substrate EWLYFQS,area with substrate EDLYFQS,area with substrate EYLYFQS,area with substrate EHLYFQS,area with substrate EFLYFQS
MGESLFKGPRDYNPISSSICHLTNESDGHTTSLYGIGFGPFIITNKHLFRRNNGTLVVQSLHGVFKVKDTTTLQQHLVDGRDMIIIRMPKDFPPFPQKLKFREPQREERICLVTTNFQTKSMSSMVSDTSCTFPSGDGIFWKHWIQTKDGQCGSPLVSTRDGFIVGIHSASNFTNTNNYFTSVPKNFMELLTNQEAQQWVSGWRLNADSVLWGGHKVFMVKPNEPFQPVKEATQL [E223N],0.0956,0.144,0.0804,0.0975,0.121,0.12,0.105,0.0933,,,,,,,,,,,
MGESLFKGPRDYNPISSSICHLTNESDGHTTSLYGIGFGPFIITNKHLFRRNNGTLVVQSLHGVFKVKDTTTLQQHLVDGRDMIIIRMPKDFPPFPQKLKFREPQREERICLVTTNFQTKSMSSMVSDTSCTFPSGDGIFWKHWIQTKDGQCGSPLVSTRDGFIVGIHSASNFTNTNNYFTSVPKNFMELLTNQEAQQWVSGWRLNADSVLWGGHKVFMVKPYEPFQPVKEATQL [E223Y],0.115,,,0.113,0.111,0.0918,0.0847,0.107,0.102,0.0854,0.0607,0.0968,,,,,,,
MGESLFKGPRDYNPISSSICHLTNESDGHTTSLYGIGFGPFIITNKHLFRRNNGTLVVQSLHGVFKVKDTTTLQQHLVDGRDMIIIRMPKDFPPFPQKLKFREPQREERICLVTTNFQTKSMSSMVSDTSCTFPSGDGIFWKHWIQTKDGQCGSPLVSTRDGFIVGIHSASNFTNTNNYFTSVPKNFMELLTNQEAQQWVSGWRLNADSVLWGGHKVFMVKIEEPFQPVKEATQL [P222I],0.106,0.102,0.0638,0.0936,0.11,,,,0.105,0.0869,,,0.104,0.0495,0.0535,,,,
MGESLFKGPRDYNPISSSICHLTNESDGHTTSLYGIGFGPFIITNKHLFRRNNGTLVVQSLHGVFKVKDTTTLQQHLVDGRDMIIIRMPKDFPPFPQKLKFREPQREERICLVTTNFQTKSMSSMVSDTSCTFPSGDGIFWKHWIQTKDGQCGSPLVSTRDGFIVGIHSASNFTNTNNYFTSVPKNFMELLTNQEAQQWVSGWRLNADSVLWGGHKVFMVKAEEPFQPVKEATQL [P222A],0.0879,,0.0636,,0.131,,,0.103,,0.0468,,0.0961,,,,0.142,0.102,,
MGESLFKGPRDYNPISSSICHLTNESDGHTTSLYGIGFGPFIITNKHLFRRNNGTLVVQSLHGVFKVKDTTTLQQHLVDGRDMIIIRMPKDFPPFPQKLKFREPQREERICLVTTNFQTKSMSSMVSDTSCTFPSGDGIFWKHWIQTKDGQCGSPLVSTRDGFIVGIHSASNFTNTNNYFTSVPKNFMELLTNQEAQQWVSGWRLNADSVLWGGHKVFMVSPEEPFQPVKEATQL [K221S],0.0988,,,0.102,0.0646,,0.0825,0.0962,,0.0648,0.142,0.0697,0.0884,0.0805,,,0.0584,,
MGESLFKGPRDYNPISSSICHLTNESDGHTTSLYGIGFGPFIITNKHLFRRNNGTLVVQSLHGVFKVKDTTTLQQHLVDGRDMIIIRMPKDFPPFPQKLKFREPQREERICLVTTNFQTKSMSSMVSDTSCTFPSGDGIFWKHWIQTKDGQCGSPLVSTRDGFIVGIHSASNFTNTNNYFTSVPKNFMELLTNQEAQQWVSGWRLNADSVLWGGHKVFMVLPEEPFQPVKEATQL [K221L],0.0982,,0.092,0.107,0.151,0.106,0.0958,,,0.0708,,0.0905,0.0799,0.109,0.103,0.118,0.1,0.0959,
MGESLFKGPRDYNPISSSICHLTNESDGHTTSLYGIGFGPFIITNKHLFRRNNGTLVVQSLHGVFKVKDTTTLQQHLVDGRDMIIIRMPKDFPPFPQKLKFREPQREERICLVTTNFQTKSMSSMVSDTSCTFPSGDGIFWKHWIQTKDGQCGSPLVSTRDGFIVGIHSASNFTNTNNYFTSVPKNFMELLTNQEAQQWVSGWRLNADSVLWGGHKVFMGKPEEPFQPVKEATQL [V220G],0.12,0.131,,0.125,0.134,0.12,0.102,0.121,0.142,,0.141,0.112,0.113,0.0876,,,,0.102,0.115
MGESLFKGPRDYNPISSSICHLTNESDGHTTSLYGIGFGPFIITNKHLFRRNNGTLVVQSLHGVFKVKDTTTLQQHLVDGRDMIIIRMPKDFPPFPQKLKFREPQREERICLVTTNFQTKSMSSMVSDTSCTFPSGDGIFWKHWIQTKDGQCGSPLVSTRDGFIVGIHSASNFTNTNNYFTSVPKNFMELLTNQEAQQWVSGWRLNADSVLWGGHKVFMEKPEEPFQPVKEATQL [V220E],0.0721,,0.0942,0.113,0.125,,0.0653,0.104,0.0972,,,0.0911,0.125,0.107,0.124,,0.102,,
MGESLFKGPRDYNPISSSICHLTNESDGHTTSLYGIGFGPFIITNKHLFRRNNGTLVVQSLHGVFKVKDTTTLQQHLVDGRDMIIIRMPKDFPPFPQKLKFREPQREERICLVTTNFQTKSMSSMVSDTSCTFPSGDGIFWKHWIQTKDGQCGSPLVSTRDGFIVGIHSASNFTNTNNYFTSVPKNFMELLTNQEAQQWVSGWRLNADSVLWGGHKVFMVKPEEPFWPVKEATQL [Q227W],0.1,,0.0817,,,,0.126,0.0994,0.102,0.0658,,0.0672,0.114,,0.0784,0.12,0.0975,,
MGESLFKGPRDYNPISSSICHLTNESDGHTTSLYGIGFGPFIITNKHLFRRNNGTLVVQSLHGVFKVKDTTTLQQHLVDGRDMIIIRMPKDFPPFPQKLKFREPQREERICLVTTNFQTKSMSSMVSDTSCTFPSGDGIFWKHWIQTKDGQCGSPLVSTRDGFIVGIHSASNFTNTNNYFTSVPKNFMELLTNQEAQQWVSGWRLNADSVLWGGHKVFWVKPEEPFQPVKEATQL [M219W],0.0892,0.11,0.1,,0.0418,0.125,0.0899,0.107,0.102,0.105,,0.0871,0.114,0.0921,0.0741,,0.093,0.0878,
